Measured values: PubChem BioAssay AID463173 (ICCB-Longwood Screening Facility, Harvard Medical School, 2010)
Screen size: about 52,000 compounds; about 1,700 (3.3%) were called active. No stated cut-off is given here; in the data, active means survival mostly below about 52% (no sharp cut-off); inactive means mostly above about 56%. Some of the results follow.

Each compound was assayed on Wild type (assay: growth inhibition of S. aureus wild type versus tarO mutant, primary screen, teichoic acid synthesis inhibitors, RN4220, OD600 (AID 463173)). Conditions: S. aureus RN4220 wild type/DeltatarO growth, OD600, 18 h, active compounds read low, screened at 18.75 µg/mL (by protocol).
For `O=C(Nc1cccc(Cl)c1Cl)c1cc2nc(-c3ccc(Cl)cc3)cc(C(F)(F)F)n2n1`, the survival was inactive: 65%. In the case of `CCCN(CCC)CCNC(=O)c1cc2c(-c3ccc(Cl)cc3)nn(C)c2s1`, the survival was inactive: 81%. For `NS(=O)(=O)c1ccc(NC(=O)/C=C/C(=O)O)cc1`, the survival was inactive: 106%. For `COc1ccc(Cn2c(=O)n(-c3ccccc3C)c(=O)c3c4c(sc32)CN(C(C)=O)CC4)cc1`, the survival was inactive: 76%. With `CC(C)CC(=O)Nc1ccc2nc(SCC(=O)N3CCCC3)sc2c1` the survival was inactive: 88%. With `COc1ccc(NC(=O)N2CCc3c(sc4c3CCCC4)C2c2ccccc2OC)cc1` (stereo not drawn) the survival was inactive: 81%. `Cc1ccc2c(c1)N(CC(=O)NC(C)(C)C)C(=O)C(C)O2` (stereo not drawn) was tested, and the survival was inactive: 97%. For `COc1ccc2[nH]c(=O)c(CN(C3CCCC3)S(=O)(=O)c3cccc4nsnc34)cc2c1`, the survival was inactive: 95%. `Cc1ccc(NC(=O)CCn2nc(C)c(S(=O)(=O)N3CCCCC3)c2C)cc1Cl` was tested, and the survival was inactive: 134%. In the case of `CCOc1ccc(N(CC(=O)Nc2cc(C)ccc2C)S(=O)(=O)c2c(C)[nH]c(=O)[nH]c2=O)cc1`, the survival was inactive: 74%. In the case of `CCOC(=O)c1c(C)sc(-c2c(-c3cc(C)ccc3C)[nH]c3c2c(=O)n(C)c(=O)n3C)c1O`, the survival was inactive: 98%. In the case of `CC1(C)C(=O)NCCN1C(=O)CCC(=O)O`, the survival was inactive: 93%. In the case of `CCN(c1ccc(C)cc1)S(=O)(=O)c1nnc(NC(=O)C2CCCCC2)s1`, the survival was inactive: 118%. For `Cc1ccc(C)c(CN2C(=O)c3ccccc3S(=O)(=O)c3ccc(C(=O)N4CCc5ccccc54)cc32)c1`, the survival was inactive: 82%. In the case of `Cc1ccc(OCC(=O)NCC(c2ccc(Cl)cc2)N2CCCCC2)cc1` (stereo not drawn), the survival was inactive: 83%. `CCCNC(=O)CSc1nc2ccccc2nc1Cc1ccc(Cl)cc1` was tested, and the survival was inactive: 91%. `CCC1=Nc2cc(C(=O)NCC(C)c3ccccc3)ccc2Sc2ccc(C)cc21` (stereo not drawn) was tested, and the survival was inactive: 77%. With `Cc1ccc(CCNC(=O)c2cn(C)c3ccc(S(=O)(=O)N(C)C4CCCCC4)cc3c2=O)cc1` the survival was inactive: 93%. With `CCn1c(CNC(=O)c2ccc(OC)cc2)nnc1SCC(=O)Nc1ccccc1` the survival was inactive: 122%. With `COC(=O)c1ccc(NC(=O)CCc2c(C)nc3c(-c4ccccc4)c(C)nn3c2C)cc1` the survival was inactive: 75%. `C=CCn1c(O)c(CN2CCN(Cc3ccccc3)CC2)c(C)c(C#N)c1=O` was tested, and the survival was inactive: 113%. For `COc1ccc(-n2c(C)c(C(C)=O)c3cc(OC(=O)c4ccc(C)cc4)ccc32)cc1`, the survival was inactive: 73%. For `CCOC(=O)c1ccc(OCC2c3cc(OC)c(OC)cc3CCN2C(=O)c2ccc(S(=O)(=O)N3CCCC3)cc2)cc1` (stereo not drawn), the survival was inactive: 70%.
